# Experimental data from paper PMC6212790.
# The other results are listed elsewhere or left out. At the low end of the ranking the order means little.
# Biological target: T1, GST-Rok-C97-191 (UniProt O34857)
# T1 sequence: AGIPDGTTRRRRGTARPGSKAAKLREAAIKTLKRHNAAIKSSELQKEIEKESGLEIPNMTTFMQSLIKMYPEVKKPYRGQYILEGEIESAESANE
# Assay: protein binding microarray;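 further: rank score from −0.5 (least bound) to 0.5 (best bound)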
# Details: Rok is a gene silencer of Bacillus subtilis; high values mean tight binding; most listed sequences are background and not binding sites; double strand, one strand shown
row,Sequence,binding signal
1,GATTTGGA,0.0767 E-score
2,AAACGGTA,0.151 E-score
3,CTTCTCTA,0.0786 E-score
4,CAGGAGGC,-0.404 E-score
5,AGACGACA,-0.201 E-score
6,AGATTTCA,0.114 E-score
7,ATGGCGTG,-0.193 E-score
8,AGTTTCAG,0.072 E-score
9,ACAACTAT,0.321 E-score
10,GCTGCCAA,0.0765 E-score
11,CTAGAACC,0.0221 E-score
12,ACAATTAT,0.165 E-score
13,ACAGTATG,0.101 E-score
14,AAGGGGGC,-0.324 E-score
15,AGTCTCGG,-0.0208 E-score
16,ATGTGAGG,-0.25 E-score
17,CAGGCAGA,-0.298 E-score
18,ACTTCCTA,0.12 E-score
19,AGTTTATG,0.12 E-score
20,GTTAGCCA,-0.0313 E-score
21,AAGGAGCG,-0.2 E-score
22,GTTTTATA,0.122 E-score
23,GCAGATCC,-0.137 E-score
24,ATGTATGC,0.189 E-score
25,CGCTGCGA,0.0439 E-score

row,Sequence,binding signal
1,ACTGGCTC,-0.203 E-score
2,AAGGCTCG,-0.238 E-score
3,AGCTCACT,-0.0486 E-score
4,CGAACTGA,-0.257 E-score
5,AGTCTTGC,0.0754 E-score
6,CTAGCTGC,-0.135 E-score
7,ACCTACAA,0.239 E-score
8,AATGGAGC,-0.00463 E-score
9,ATATGCGA,0.0698 E-score
10,AACGACCG,-0.087 E-score
11,CATTTTTA,0.184 E-score
12,AGGGAGAG,-0.246 E-score
13,CACGCAGG,-0.245 E-score
14,AACCTTGC,-0.122 E-score
15,CTATTTCA,0.0631 E-score
16,AATTTATA,0.373 E-score
17,AAGACCCG,-0.115 E-score
18,GACTGCCC,-0.275 E-score
19,GCGGGACA,-0.242 E-score
20,AACACGTG,-0.127 E-score
21,AGTGTTGA,0.0238 E-score
22,CGTCATGC,-0.188 E-score
23,AACGACCT,-0.00857 E-score
24,CTAGGCAG,-0.128 E-score
25,GCATAGTA,0.253 E-score

row,Sequence,binding signal
1,GCTCCACA,0.0866 E-score
2,CCTTTAAC,0.0957 E-score
3,CACTTCCG,-0.0347 E-score
4,AATGACAA,0.0576 E-score
5,AGTCTGTG,-0.0121 E-score
6,AGAGTCTC,0.035 E-score
7,AACTGGCT,-0.0274 E-score
8,AGGTTGGG,-0.154 E-score
9,AGATATAT,0.421 E-score
10,TCCATTAA,0.048 E-score
11,GTGGTTAA,-0.104 E-score
12,GCGTTAGC,-0.193 E-score
13,CAACGCCG,-0.278 E-score
14,GACGTGAC,0.0309 E-score
15,CGCCACAC,-0.0118 E-score
16,GGATTTAA,0.0279 E-score
17,GTCCACCA,-0.25 E-score
18,CGGTCGAG,-0.197 E-score
19,CATTGCGC,0.0974 E-score
20,AGAAACCC,-0.0576 E-score
21,ATGACATA,0.0408 E-score
22,CGAGCGGA,-0.206 E-score
23,TGAACCCA,-0.0276 E-score
24,GACCTCGC,-0.261 E-score
25,GGCTTGAC,-0.139 E-score

row,Sequence,binding signal
1,ATAACGAT,0.285 E-score
2,AAGCGAGC,-0.214 E-score
3,CCTCTGTA,-0.118 E-score
4,ACGCAAAA,0.118 E-score
5,ATTAGTCC,0.146 E-score
6,TCATTCAA,0.0219 E-score
7,CCGAGATC,-0.0194 E-score
8,TACCAGGA,0.149 E-score
9,GACCGTCC,-0.203 E-score
10,TGGACGAA,-0.0653 E-score
11,GAAGCGTA,-0.00889 E-score
12,TGACGAAA,-0.0112 E-score
13,ATCTTCGG,0.172 E-score
14,AGTTTATA,0.278 E-score
15,AGCCCTCG,-0.278 E-score
16,CCGACTAG,0.0252 E-score
17,CGCATTCA,0.00763 E-score
18,CATCGTAG,-0.0544 E-score
19,AGGTGCGC,-0.123 E-score
20,ACAGGCGG,-0.187 E-score
21,ACTTTGCA,0.123 E-score
22,ATCCAATC,0.0383 E-score
23,AAAAGGTC,0.0149 E-score
24,AGCGAACT,0.0463 E-score
25,ATCGACTC,-0.0989 E-score

row,Sequence,binding signal
1,GCAGCTAC,-0.103 E-score
2,CGATGTTC,0.00806 E-score
3,CATTACGG,-0.0391 E-score
4,ACTTCACC,-0.017 E-score
5,AATATAGC,0.349 E-score
6,GAACAAGC,0.0816 E-score
7,AGTCCATG,0.073 E-score
8,CCGACGAG,-0.156 E-score
9,TATCACAA,0.147 E-score
10,ACAATCAA,0.212 E-score
11,TCACGGCA,-0.0376 E-score
12,AACTGTAC,0.23 E-score
13,AGGAGTCG,-0.139 E-score
14,ATAACTTC,0.135 E-score
15,TACCCCGA,-0.221 E-score
16,CGCTCGCC,-0.137 E-score
17,AACGGCTT,-0.144 E-score
18,GGTTATTA,0.0524 E-score
19,CAAGCCCC,-0.307 E-score
20,GCAGTGAA,-0.237 E-score
21,ACCTGCAA,-0.227 E-score
22,CAAGGCAC,-0.192 E-score
23,GCTACAGA,0.177 E-score
24,GTGGCAGA,-0.33 E-score
25,CGGTCGAA,-0.0134 E-score

row,Sequence,binding signal
1,CATGCCCA,-0.272 E-score
2,AACCTTAC,0.0393 E-score
3,ACCCGGGC,-0.383 E-score
4,GCGATTAA,-0.181 E-score
5,GACTCCAA,-0.211 E-score
6,ACAACAAA,0.0164 E-score
7,GAGTGCGA,-0.0836 E-score
8,ACTCGTTC,-0.014 E-score
9,AACAACCT,-0.051 E-score
10,CGTCGTTA,0.116 E-score
11,ACTGTCCC,-0.124 E-score
12,AATTGATA,0.269 E-score
13,TATCTAAA,0.241 E-score
14,GTGTACAC,-0.0467 E-score
15,CGCCGTTC,-0.164 E-score
16,CGAGTTTA,-0.00315 E-score
17,GAACTGAA,-0.135 E-score
18,CACCCATG,-0.343 E-score
19,GGCCTCAA,-0.337 E-score
20,AGGCGTGC,-0.111 E-score
21,GTACCCCA,-0.154 E-score
22,ACCTATCG,0.0496 E-score
23,AATGCTCC,-0.0736 E-score
24,GTGCCATA,0.0271 E-score
25,CGAGGCGC,-0.211 E-score

row,Sequence,binding signal
1,AGGGGAAC,-0.131 E-score
2,GGCAAGAA,-0.058 E-score
3,GTCGCTTA,-0.0969 E-score
4,CTTCTTGC,-0.165 E-score
5,CGGAGATA,0.179 E-score
6,AACTCGAG,0.112 E-score
7,AGGACGCC,-0.229 E-score
8,GAGTAAGC,-0.0766 E-score
9,TACGCGAA,0.134 E-score
10,CGCTCCCA,-0.361 E-score
11,AACCCGTC,-0.139 E-score
12,CTACAATC,0.12 E-score
13,CACCTTAA,-0.143 E-score
14,CTCTACCC,-0.106 E-score
15,GGCAACGA,-0.0283 E-score
16,AGATGGCT,-0.202 E-score
17,GGACGAAA,-0.0336 E-score
18,CGTTCTAC,0.304 E-score
19,GTACCGAC,-0.167 E-score
20,CGCGCAAG,0.0462 E-score
21,CACATATA,0.264 E-score
22,AGCTAACA,0.0924 E-score
